Data as given in PubChem BioAssay AID1745853 (National Center for Advancing Translational Sciences (NCATS), 2022).
The list shows a part of the results. Further columns of the screen follow, without active or inactive calls.

Assays:
Test in all cases: Primary Screen for Target Class Profiling of Small Molecule Inhibitors of Methyltransferases
[1] = target: Glycine N-methyltransferase (Homo sapiens) (UniProt Q14749); conditions: purified enzyme, MTase-Glo SAH luminescence; measured here: GNMT inhibition; at 40 µM; stronger effect = lower value
How it was run: (§1)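 Each enzyme was assayed with SAM and its substrate. SAH formation detected by MTase-Glo luminescence; single-point 40 uM screen[…].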

[2] = target: Guanidinoacetate N-methyltransferase (Homo sapiens) (UniProt Q14353); conditions: purified enzyme, MTase-Glo SAH luminescence; measured here: GAMT inhibition; at 40 µM; stronger effect = lower value
How it was run: as §1

[3] = target: Histamine N-methyltransferase (Homo sapiens) (UniProt P50135); conditions: purified enzyme, MTase-Glo SAH luminescence; measured here: HNMT inhibition; at 40 µM; stronger effect = lower value
How it was run: as §1

[4] = target: Nicotinamide N-methyltransferase (Homo sapiens) (UniProt P40261); conditions: purified enzyme, MTase-Glo SAH luminescence; measured here: NNMT inhibition; at 40 µM; stronger effect = lower value
How it was run: as §1

[5] = target: Phenylethanolamine N-methyltransferase (Homo sapiens) (UniProt P11086); conditions: purified enzyme, MTase-Glo SAH luminescence; measured here: PNMT inhibition; at 40 µM; stronger effect = lower value
How it was run: as §1
% is set by controls: 0 for no effect and ±100 for the full control effect.

| SMILES | activity change, negative = inhibition [1] | activity change, negative = inhibition [2] | activity change, negative = inhibition [3] | activity change, negative = inhibition [4] | activity change, negative = inhibition [5] |
| --- | --- | --- | --- | --- | --- |
| CC(C)Oc1ccc(CN2C(=O)c3ccc(-c4ccco4)n3CC2(C)C(=O)NC2CCCC2)cc1 (stereo unspecified) | -11.7% | 4.24% | 4.61% | -8.05% | 0.194% |
| CCCC1c2ccc(C)n2CCN1C(=O)Nc1ccccc1C(=O)OCC (stereo unspecified) | -2.16% | 0% | 1.18% | 8.23% | 1.89% |
| CC1(C(=O)NC2CCCCC2)Cn2c(nc3ccccc32)C(=O)N1Cc1ccccc1F (stereo unspecified) | 1.83% | 0% | 5.66% | 6.44% | 0.266% |
| COc1cccc(C(=O)Cn2nc3n(CC(C)C)c(=O)c4ccc(C(=O)NC(C)C)cc4n3c2=O)c1 | 8.57% | 3.35% | 10.7% | 5.99% | 8.31% |
| CCOCCCNC(=O)c1cc2cn(C3CC3)cc2s1 | -9.66% | -4.43% | -2.15% | 0.15% | -15.6% |
| COc1cc(O)c2c(c1)C1OC1C[C@H](O)[C@H](O)C(=O)/C=C\C[C@H](C)OC2=O (stereo partly specified) | -49.5% | -4.42% | -1.03% | -12.3% | -2.37% |
| C=CCn1c(=O)c2ccc(C(=O)NC(C)C)cc2n2c(=O)n(CC(=O)Nc3ccccc3C)nc12 | 5.05% | 0% | 6.8% | -0.918% | 6.52% |
| COc1cccc(CNc2nc3c(S(=O)(=O)c4ccccc4)nnn3c3ccc(Cl)cc23)c1 | 0.398% | 2.88% | -2.75% | -8.79% | -1.9% |
| COCCNC(=O)c1ccc2c(=O)nc3c(-c4cccc(F)c4)n[nH]n3c2c1 | 0.735% | -3.67% | 2.54% | 3.07% | -1.93% |
| CC(C)OCCCn1c(=O)c2ccccc2n2c(=O)n(Cc3ccc(F)cc3Cl)nc12 | -5.65% | 0.954% | 3.38% | -15.7% | -3.15% |
| CCC(C)NC(=O)Cn1c(=O)oc2cc(S(=O)(=O)NC3CCCC3)ccc21 (stereo unspecified) | 2.36% | 1.48% | 9.02% | 14.3% | 3.52% |
| c1ccc(-n2cc(CN3CCCN(Cc4cccs4)CC3)nn2)cc1 | -10.2% | -13% | -12.2% | -19.7% | -27.2% |
| COc1ccc(OC)c(N2C(=O)C(Cl)=C(N3CCCCC3)C2=O)c1 | – | 1.42% | – | -17.2% | -9.44% |
| CCOC(=O)c1cc2n(n1)CC(C)(C(=O)NCCCOC(C)C)N(c1ccc(F)cc1C)C2=O (stereo unspecified) | 6.41% | 6.72% | 11.1% | 4.85% | 6.49% |
| C[C@@H]1COCCN1c1cc(C2(S(C)(=O)=O)CC2)nc(-c2cccc3[nH]ccc23)n1 | -2.13% | 0.037% | 6.24% | -9.87% | 2.95% |
| C=C1C(=O)O[C@@H]2CC(C)=C([C@@H](C)CCCO)[C@@H](OC(=O)C(C)C)[C@H]12 | 1.44% | -1.52% | 4.8% | -18.4% | 3.99% |
| CC(C)OCCCn1c(=O)c2ccccc2n2c(=O)n(Cc3ccc(Cl)cc3)nc12 | -1.59% | 0% | 7.66% | -15% | -1.74% |
| Cc1cc2c(F)c(Oc3ncnn4cc(OC[C@@H](C)OC(=O)[C@H](C)N)c(C)c34)ccc2[nH]1 | – | 4.02% | – | -27.6% | -7.56% |
| CCN1C(=O)c2cc(C(=O)NCc3ccccn3)nn2CC1(C)C(=O)NC1CCCC1 (stereo unspecified) | 1.28% | 3.47% | 1.89% | 2.31% | -1.51% |
| COc1cc(SC)c(OC)cc1CN1CCC2(CC(=O)NC2=O)C1 (stereo unspecified) | -7.61% | -12.4% | -3.92% | -16.8% | 4.15% |
| Cc1ccc(CN2C(=O)c3ccc(-c4ccco4)n3CC2(C)C(=O)NC2CCCCC2)cc1 (stereo unspecified) | -22.2% | -11.1% | -5.69% | -19.8% | -9.85% |
| CCCn1c(=O)c2ccc(C(=O)NCC(C)C)cc2n2c(=O)n(Cc3ccc(C)cc3)nc12 | 3.76% | 2.44% | 5.53% | -0.553% | 5.4% |
| CS(=O)(=O)Nc1ccc2oc3c(OC(F)F)ccc(C(=O)Nc4c(Cl)cncc4Cl)c3c2c1 | -68.5% | -0.426% | -4.1% | -16.8% | -6.21% |
| CCCCc1ccc(NC(=O)CN2C(=O)NC3(CCS(=O)(=O)CC3)C2=O)cc1 | -6% | -8.1% | -1.39% | -9.47% | -2.4% |
| CCOc1ccc(CNC(=O)C2c3ccccc3CC(=O)N2CC)cc1 (stereo unspecified) | -8.92% | -11.3% | -6.24% | -11.9% | -14.6% |
| Cc1cccc(CN2C(=O)c3cc(-c4ccco4)nn3CC2(C)C(=O)NCCC(C)C)c1 (stereo unspecified) | -3.23% | 3.05% | -3.25% | -8.92% | -6.51% |
| COCCCNC(=O)c1cnc2n[nH]c(-c3ccccc3)c2n1 | -85.7% | -80.4% | -87.8% | -78.7% | -78.3% |
| COc1ccc(OC)c2c1cc1n2CC(C)(C(=O)NC2CCC(C)CC2)N(Cc2ccco2)C1=O (stereo unspecified) | -0.252% | 0% | 3.5% | -0.055% | 1.46% |
| CCCC1c2cccn2CCN1C(=O)Nc1ccc(Br)cc1 (stereo unspecified) | -7.42% | 4.64% | -30.7% | -8.02% | -0.935% |
| CCOC(=O)c1cc2n(n1)CC(C)(C(=O)NC1CCCCC1)N(c1ccccc1OC)C2=O (stereo unspecified) | 0.229% | 3.11% | -3.53% | -1.79% | -0.596% |
